The chains are these.
B1: UGUAGCA (DNA:RNA)
RNA: GGGAGACCGGAAUUCAGAUUGUCCUGUAGCAUUAAAUCCCGUCGUAGCCACCA
DNA 1: CAATCTGAATTCCGGTCTCCC
DNA 2: TGGTGGCTACGACGGGATT
B2: GGUAUUA (DNA:RNA)
RNA: B1 RNA with U25G, G29U, C30U
DNA 1: CAATCTGAATTCCGGTCTCCC
DNA 2: TGGTGGCTACGACGGGATT
B3: GUCCAGC (DNA:RNA)
RNA: GGGAGACCGGAAUUCAGAUUGUCCGUCCAGCUUAAAUCCCGUCGUAGCCACCA
DNA 1: CAATCTGAATTCCGGTCTCCC
DNA 2: TGGTGGCTACGACGGGATT
B4: GGACUAG (DNA:RNA)
RNA: B3 RNA with U26G, C27A, A29U, G30A, C31G
DNA 1: CAATCTGAATTCCGGTCTCCC
DNA 2: TGGTGGCTACGACGGGATT
B5: GGUGGCG (DNA:RNA)
RNA: B1 RNA with U25G, A28G, A31G
DNA 1: CAATCTGAATTCCGGTCTCCC
DNA 2: TGGTGGCTACGACGGGATT
B6: UUCCAUU (DNA:RNA)
RNA: B3 RNA with G25U, G30U, C31U
DNA 1: CAATCTGAATTCCGGTCTCCC
DNA 2: TGGTGGCTACGACGGGATT
B7: UAUGGGA (DNA:RNA)
RNA: B1 RNA with G26A, A28G, C30G
DNA 1: CAATCTGAATTCCGGTCTCCC
DNA 2: TGGTGGCTACGACGGGATT
B8: CGGACAU (DNA:RNA)
RNA: B1 RNA with U25C, U27G, G29C, C30A, A31U
DNA 1: CAATCTGAATTCCGGTCTCCC
DNA 2: TGGTGGCTACGACGGGATT
B9: GAACUGU (DNA:RNA)
RNA: B3 RNA with U26A, C27A, A29U, C31U
DNA 1: CAATCTGAATTCCGGTCTCCC
DNA 2: TGGTGGCTACGACGGGATT
B10: UCAGCUG (DNA:RNA)
RNA: B1 RNA with G26C, U27A, A28G, G29C, C30U, A31G
DNA 1: CAATCTGAATTCCGGTCTCCC
DNA 2: TGGTGGCTACGACGGGATT
B11: UUUCCGU (DNA:RNA)
RNA: B3 RNA with G25U, C27U, A29C, C31U
DNA 1: CAATCTGAATTCCGGTCTCCC
DNA 2: TGGTGGCTACGACGGGATT
B12: AAUCCGU (DNA:RNA)
RNA: B3 RNA with G25A, U26A, C27U, A29C, C31U
DNA 1: CAATCTGAATTCCGGTCTCCC
DNA 2: TGGTGGCTACGACGGGATT
B13: UGCCCGC (DNA:RNA)
RNA: B3 RNA with G25U, U26G, A29C
DNA 1: CAATCTGAATTCCGGTCTCCC
DNA 2: TGGTGGCTACGACGGGATT
B14: CGUUACA (DNA:RNA)
RNA: B1 RNA with U25C, A28U, G29A
DNA 1: CAATCTGAATTCCGGTCTCCC
DNA 2: TGGTGGCTACGACGGGATT
B15: CAAAAUG (DNA:RNA)
RNA: B3 RNA with G25C, U26A, C27A, C28A, G30U, C31G
DNA 1: CAATCTGAATTCCGGTCTCCC
DNA 2: TGGTGGCTACGACGGGATT
B16: GCUGUCG (DNA:RNA)
RNA: B1 RNA with U25G, G26C, A28G, G29U, A31G
DNA 1: CAATCTGAATTCCGGTCTCCC
DNA 2: TGGTGGCTACGACGGGATT
B17: ACCCUCA (DNA:RNA)
RNA: B3 RNA with G25A, U26C, A29U, G30C, C31A
DNA 1: CAATCTGAATTCCGGTCTCCC
DNA 2: TGGTGGCTACGACGGGATT
B18: AGGUCUA (DNA:RNA)
RNA: B1 RNA with U25A, U27G, A28U, G29C, C30U
DNA 1: CAATCTGAATTCCGGTCTCCC
DNA 2: TGGTGGCTACGACGGGATT
B19: GUUUUUU (DNA:RNA)
RNA: B3 RNA with C27U, C28U, A29U, G30U, C31U
DNA 1: CAATCTGAATTCCGGTCTCCC
DNA 2: TGGTGGCTACGACGGGATT
B20: CCUGUGU (DNA:RNA)
RNA: B3 RNA with G25C, U26C, C27U, C28G, A29U, C31U
DNA 1: CAATCTGAATTCCGGTCTCCC
DNA 2: TGGTGGCTACGACGGGATT
B21: CCUCACG (DNA:RNA)
RNA: B3 RNA with G25C, U26C, C27U, G30C, C31G
DNA 1: CAATCTGAATTCCGGTCTCCC
DNA 2: TGGTGGCTACGACGGGATT
B22: GCCGUUG (DNA:RNA)
RNA: B3 RNA with U26C, C28G, A29U, G30U, C31G
DNA 1: CAATCTGAATTCCGGTCTCCC
DNA 2: TGGTGGCTACGACGGGATT
B23: UAGCGGA (DNA:RNA)
RNA: B1 RNA with G26A, U27G, A28C, C30G
DNA 1: CAATCTGAATTCCGGTCTCCC
DNA 2: TGGTGGCTACGACGGGATT
B24: AUGAUAA (DNA:RNA)
RNA: B1 RNA with U25A, G26U, U27G, G29U, C30A
DNA 1: CAATCTGAATTCCGGTCTCCC
DNA 2: TGGTGGCTACGACGGGATT
B25: CCGAGCA (DNA:RNA)
RNA: B1 RNA with U25C, G26C, U27G
DNA 1: CAATCTGAATTCCGGTCTCCC
DNA 2: TGGTGGCTACGACGGGATT
B26: CAGUCUG (DNA:RNA)
RNA: GGGAGACCGGAAUUCAGAUUGUCCCAGUCUGUUAAAUCCCGUCGUAGCCACCA
DNA 1: CAATCTGAATTCCGGTCTCCC
DNA 2: TGGTGGCTACGACGGGATT
B27: AGGCUAA (DNA:RNA)
RNA: B1 RNA with U25A, U27G, A28C, G29U, C30A
DNA 1: CAATCTGAATTCCGGTCTCCC
DNA 2: TGGTGGCTACGACGGGATT
B28: AUCUCCU (DNA:RNA)
RNA: B26 RNA with C25A, A26U, G27C, U30C, G31U
DNA 1: CAATCTGAATTCCGGTCTCCC
DNA 2: TGGTGGCTACGACGGGATT
B29: GGAGACU (DNA:RNA)
RNA: B3 RNA with U26G, C27A, C28G, G30C, C31U
DNA 1: CAATCTGAATTCCGGTCTCCC
DNA 2: TGGTGGCTACGACGGGATT
B30: UAGCUGA (DNA:RNA)
RNA: B26 RNA with C25U, U28C, C29U, U30G, G31A
DNA 1: CAATCTGAATTCCGGTCTCCC
DNA 2: TGGTGGCTACGACGGGATT
B31: GAGUUUU (DNA:RNA)
RNA: B26 RNA with C25G, C29U, G31U
DNA 1: CAATCTGAATTCCGGTCTCCC
DNA 2: TGGTGGCTACGACGGGATT

This is an account of results in article PMC9911399, “Two distinct binding modes provide the RNA-binding protein RbFox with extraordinary sequence specificity”.

Substitutions are numbered along the chain they refer to; changes in the protein carry UniProt numbers. The list shows a part of the results.

The target of this assay is T1, RBFOX1 RRM (Homo sapiens, UniProt Q9NWB1 109-208).
T1 sequence: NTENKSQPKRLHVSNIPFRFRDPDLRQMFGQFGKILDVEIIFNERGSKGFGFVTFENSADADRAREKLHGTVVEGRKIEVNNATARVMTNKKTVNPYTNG
The experiment in a line: EMSA; HiTS-Eq, 1 nM pool, 10 min; buffer printed only for the single-RNA assays: 10 mM Tris pH 7.5, 150 mM NaCl, 3.4 mM EDTA, 0.001% NP-40, 30 C. The settings on record: tags: His6 N-terminal (pET28a); label: 5' 32P. The gist of the method:
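These values rest on relative association constants, computed from read-count changes of each RNA species versus the control reaction and normalised to the cognate motif. Reads came from free RNA recovered by 8% native PAGE after purified RbFox RRM (wild type or mutant) at increasing concentrations was equilibrated for 10 min in 50 µL with 1 nM of a 5′-radiolabelled pool with 7 randomized nucleotides and DNA-annealed flanks.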
(In general: A gel shift assay detects complexes by their altered migration in electrophoresis.)
As for B1, the binding signal was 0.0201 KA relative to UGCAUGU.

For the molecule B2, the binding signal is 0.00455 KA relative to UGCAUGU.

Regarding B3, the binding signal is 0.0098 KA relative to UGCAUGU.

Take B4: the binding signal is 0.00981 KA relative to UGCAUGU.

Regarding B5, the binding signal was 0.0174 KA relative to UGCAUGU.

For the molecule B6, the binding signal was 0.00293 KA relative to UGCAUGU.

As for B7, the binding signal was 0.00251 KA relative to UGCAUGU.

Regarding B8, the binding signal is 0.019 KA relative to UGCAUGU.

B9: the binding signal was 0.0163 KA relative to UGCAUGU.

As to B10, the binding signal is 0.0139 KA relative to UGCAUGU.

Regarding B11, the binding signal was 0.00961 KA relative to UGCAUGU.

In the case of B12, the binding signal is 0.00022 KA relative to UGCAUGU.

On to B13, for which the binding signal was 0.0206 KA relative to UGCAUGU.

With B14, the binding signal was 0.00337 KA relative to UGCAUGU.

For the molecule B15, the binding signal is 0.00232 KA relative to UGCAUGU.

In the case of B16, the binding signal was 0.0197 KA relative to UGCAUGU.

As to B17, the binding signal was 0.00311 KA relative to UGCAUGU.

Take B18: the binding signal is 0.00527 KA relative to UGCAUGU.

For the molecule B19, the binding signal is 0.0203 KA relative to UGCAUGU.

As to B20, the binding signal is 0.0181 KA relative to UGCAUGU.

As for B21, the binding signal is 0.00492 KA relative to UGCAUGU.

As for B22, the binding signal is 0.0204 KA relative to UGCAUGU.

With B23, the binding signal was 0.00383 KA relative to UGCAUGU.

Consider B24, for which the binding signal was 0.00224 KA relative to UGCAUGU.

With B25, the binding signal was 0.0163 KA relative to UGCAUGU.

In the case of B26, the binding signal was 0.0134 KA relative to UGCAUGU.

Consider B27, for which the binding signal was 0.00874 KA relative to UGCAUGU.

With B28, the binding signal was 0.00558 KA relative to UGCAUGU.

As for B29, the binding signal is 0.0149 KA relative to UGCAUGU.

Turning to B30, the binding signal is 0.0162 KA relative to UGCAUGU.

Regarding B31, the binding signal was 0.015 KA relative to UGCAUGU.
